# Assay results published in the supplement of paper PMC8728848.
# The other results are listed elsewhere or left out.
# B1: PpFlo3 (Pichia pastoris) (protein)
# chain: MGSSHHHHHHSSGLVPRGSHMQESGNGTTSDTAYACDIGATPFDGFNATIYQYQASDDNSIQDPVFMSTGYLQRNQLHSTTGVTNPGFNIFTAGVATTTLYGIPNVNYQNMLLELKGYFRADASGNYGLSLRNIDDSAILFFGRETAFECCNENLIPLDEAPTDYSLFTIKEGEASTNPDSYTYTQYLEAGRYYPVRTFFANIRTRAVFNFTMTLPDGSELTDFQNYIFQFGALNQ
# Legend:
# Test in all cases: glycan array binding signal (z-score within array); higher = stronger binding
# Conditions in all cases: glycan notation: IUPAC condensed, linker removed
# [1] = molecular target: Neu5Ac(a2-3)Gal(b1-4)[Fuc(a1-3)]GlcNAc6S
# Summary of the method: (§1)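 Negative Z-scores can be read as non-binding. The Z-score is calculated within each array and then averaged across arrays of one protein sequence at different concentrations or buffers and across linkers. Arrays, 3228 in all, were curated from the Consortium for Functional Glycomics database and kept only where the protein sequence was available.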
# [2] = molecular target: Neu5Ac(a2-3)Gal6S(b1-4)GlcNAc
# Summary of the method: as §1
# [3] = molecular target: Neu5Ac(a2-3)Gal6S(b1-4)[Fuc(a1-3)]GlcNAc
# Summary of the method: as §1
# Neu5Ac(a2-3)GalNAc = molecular target: Neu5Ac(a2-3)GalNAc
# Summary of the method: as §1
# [4] = molecular target: Neu5Ac(a2-3)GalNAc(b1-4)GlcNAc
# Summary of the method: as §1
# [5] = molecular target: Neu5Ac(a2-3)[GalNAc(b1-4)]Gal(b1-4)Glc
# Summary of the method: as §1
# [6] = molecular target: Neu5Ac(a2-3)[GalNAc(b1-4)]Gal(b1-4)GlcNAc
# Summary of the method: as §1
# [7] = molecular target: Neu5Ac(a2-3)[GalNAc(b1-4)]Gal(b1-4)GlcNAc(b1-3)GalNAc
# Summary of the method: as §1
# [8] = molecular target: Neu5Ac(a2-3)[Neu5Ac(a2-6)]GalNAc
# Summary of the method: as §1
# Neu5Ac(a2-6)Gal = molecular target: Neu5Ac(a2-6)Gal
# Summary of the method: as §1
# [9] = molecular target: Neu5Ac(a2-6)Gal(b1-3)GlcNAc(b1-3)[Gal(b1-4)GlcNAc(b1-6)]Gal(b1-4)Glc
# Summary of the method: as §1
# Neu5Ac(a2-6)Gal(b1-4)Glc = molecular target: Neu5Ac(a2-6)Gal(b1-4)Glc
# Summary of the method: as §1
# [10] = molecular target: Neu5Ac(a2-6)Gal(b1-4)GlcNAc
# Summary of the method: as §1
# [11] = molecular target: Neu5Ac(a2-6)Gal(b1-4)GlcNAc(b1-2)Man(a1-3)Man(b1-4)GlcNAc(b1-4)GlcNAc
# Summary of the method: as §1
# [12] = molecular target: Neu5Ac(a2-6)Gal(b1-4)GlcNAc(b1-2)Man(a1-3)[Gal(b1-4)GlcNAc(b1-2)Man(a1-6)]Man(b1-4)GlcNAc(b1-4)GlcNAc
# Summary of the method: as §1
# [13] = molecular target: Neu5Ac(a2-6)Gal(b1-4)GlcNAc(b1-2)Man(a1-3)[GlcNAc(b1-2)Man(a1-6)]Man(b1-4)GlcNAc(b1-4)GlcNAc
# Summary of the method: as §1
# [14] = molecular target: Neu5Ac(a2-6)Gal(b1-4)GlcNAc(b1-2)Man(a1-3)[GlcNAc(b1-2)Man(b1-4)GlcNAc(b1-2)Man(a1-6)]Man(b1-4)GlcNAc(b1-4)GlcNAc
# Summary of the method: as §1
# [15] = molecular target: Neu5Ac(a2-6)Gal(b1-4)GlcNAc(b1-2)Man(a1-3)[Man(a1-6)]Man(b1-4)GlcNAc(b1-4)GlcNAc
# Summary of the method: as §1
# [16] = molecular target: Neu5Ac(a2-6)Gal(b1-4)GlcNAc(b1-2)Man(a1-3)[Neu5Ac(a2-6)Gal(b1-4)GlcNAc(b1-2)Man(a1-6)]Man(b1-4)GlcNAc(b1-4)GlcNAc
# Summary of the method: as §1
# [17] = molecular target: Neu5Ac(a2-6)Gal(b1-4)GlcNAc(b1-2)Man(a1-6)Man(b1-4)GlcNAc(b1-4)GlcNAc
# Summary of the method: as §1
# [18] = molecular target: Neu5Ac(a2-6)Gal(b1-4)GlcNAc(b1-2)Man(a1-6)[Gal(b1-4)GlcNAc(b1-2)Man(a1-3)]Man(b1-4)GlcNAc(b1-4)GlcNAc
# Summary of the method: as §1
# [19] = molecular target: Neu5Ac(a2-6)Gal(b1-4)GlcNAc(b1-2)Man(a1-6)[GlcNAc(b1-2)Man(a1-3)]Man(b1-4)GlcNAc(b1-4)GlcNAc
# Summary of the method: as §1
# [20] = molecular target: Neu5Ac(a2-6)Gal(b1-4)GlcNAc(b1-2)Man(a1-6)[Man(a1-3)]Man(b1-4)GlcNAc(b1-4)GlcNAc
# Summary of the method: as §1
# [21] = molecular target: Neu5Ac(a2-6)Gal(b1-4)GlcNAc(b1-3)Gal(b1-3)GlcNAc
# Summary of the method: as §1
# [22] = molecular target: Neu5Ac(a2-6)Gal(b1-4)GlcNAc(b1-3)Gal(b1-4)GlcNAc
# Summary of the method: as §1
# [23] = molecular target: Neu5Ac(a2-6)Gal(b1-4)GlcNAc(b1-3)Gal(b1-4)GlcNAc(b1-3)Gal(b1-4)GlcNAc
# Summary of the method: as §1
# [24] = molecular target: Neu5Ac(a2-6)Gal(b1-4)GlcNAc(b1-3)Gal(b1-4)[Fuc(a1-3)]GlcNAc(b1-3)Gal(b1-4)[Fuc(a1-3)]GlcNAc
# Summary of the method: as §1
# [25] = molecular target: Neu5Ac(a2-6)Gal(b1-4)GlcNAc(b1-3)GalNAc
# Summary of the method: as §1
# [26] = molecular target: Neu5Ac(a2-6)Gal(b1-4)GlcNAc6S
# Summary of the method: as §1
# Neu5Ac(a2-6)GalNAc = molecular target: Neu5Ac(a2-6)GalNAc
# Summary of the method: as §1
# [27] = molecular target: Neu5Ac(a2-6)GalNAc(b1-4)GlcNAc
# Summary of the method: as §1
# [28] = molecular target: Neu5Ac(a2-6)GlcNAc(b1-4)GlcNAc
# Summary of the method: as §1
# [29] = molecular target: Neu5Ac(a2-6)GlcNAc(b1-4)GlcNAc(b1-4)GlcNAc
# Summary of the method: as §1
# Neu5Ac(a2-8)Neu5Ac = molecular target: Neu5Ac(a2-8)Neu5Ac
# Summary of the method: as §1
# [30] = molecular target: Neu5Ac(a2-8)Neu5Ac(a2-3)Gal(b1-3)GalNAc(b1-4)[Neu5Ac(a2-8)Neu5Ac(a2-3)]Gal(b1-4)Glc
# Summary of the method: as §1
# [31] = molecular target: Neu5Ac(a2-8)Neu5Ac(a2-3)Gal(b1-4)Glc
# Summary of the method: as §1
# [32] = molecular target: Neu5Ac(a2-8)Neu5Ac(a2-3)[Gal(b1-3)GalNAc(b1-4)]Gal(b1-4)Glc
# Summary of the method: as §1
# [33] = molecular target: Neu5Ac(a2-8)Neu5Ac(a2-3)[GalNAc(b1-4)]Gal(b1-4)Glc
# Summary of the method: as §1
# [34] = molecular target: Neu5Ac(a2-8)Neu5Ac(a2-8)Neu5Ac
# Summary of the method: as §1
# [35] = molecular target: Neu5Ac(a2-8)Neu5Ac(a2-8)Neu5Ac(a2-3)Gal(b1-4)Glc
# Summary of the method: as §1
# [36] = molecular target: Neu5Ac(a2-8)Neu5Ac(a2-8)Neu5Ac(a2-3)[GalNAc(b1-4)]Gal(b1-4)Glc
# Summary of the method: as §1
# [37] = molecular target: Neu5Ac(a2-8)Neu5Ac(a2-8)Neu5Ac(a2-8)Neu5Ac(a2-3)[GalNAc(b1-4)]Gal(b1-4)Glc
# Summary of the method: as §1
# [38] = molecular target: Neu5Ac(b2-6)Gal(b1-4)GlcNAc
# Summary of the method: as §1
# Neu5Ac(b2-6)GalNAc = molecular target: Neu5Ac(b2-6)GalNAc
# Summary of the method: as §1
# [39] = molecular target: Neu5Ac9Ac(a2-3)Gal(b1-3)GlcNAc
# Summary of the method: as §1
binder,measurement,setting,value
B1,glycan array binding signal (z-score),[1],-0.27
same,glycan array binding signal (z-score),[2],-0.259
same,glycan array binding signal (z-score),[3],-0.268
same,glycan array binding signal (z-score),Neu5Ac(a2-3)GalNAc,-0.083
same,glycan array binding signal (z-score),[4],-0.282
same,glycan array binding signal (z-score),[5],-0.143
same,glycan array binding signal (z-score),[6],-0.272
same,glycan array binding signal (z-score),[7],-0.111
same,glycan array binding signal (z-score),[8],-0.286
same,glycan array binding signal (z-score),Neu5Ac(a2-6)Gal,-0.275
same,glycan array binding signal (z-score),[9],-0.283
same,glycan array binding signal (z-score),Neu5Ac(a2-6)Gal(b1-4)Glc,-0.279
same,glycan array binding signal (z-score),[10],-0.282
same,glycan array binding signal (z-score),[11],-0.274
same,glycan array binding signal (z-score),[12],0.009
same,glycan array binding signal (z-score),[13],-0.275
same,glycan array binding signal (z-score),[14],-0.266
same,glycan array binding signal (z-score),[15],-0.281
same,glycan array binding signal (z-score),[16],-0.225
same,glycan array binding signal (z-score),[17],-0.261
same,glycan array binding signal (z-score),[18],-0.11
same,glycan array binding signal (z-score),[19],4.82
same,glycan array binding signal (z-score),[20],-0.242
same,glycan array binding signal (z-score),[21],-0.267
same,glycan array binding signal (z-score),[22],-0.214
same,glycan array binding signal (z-score),[23],-0.219
same,glycan array binding signal (z-score),[24],-0.286
same,glycan array binding signal (z-score),[25],-0.27
same,glycan array binding signal (z-score),[26],-0.269
same,glycan array binding signal (z-score),Neu5Ac(a2-6)GalNAc,-0.282
same,glycan array binding signal (z-score),[27],-0.293
same,glycan array binding signal (z-score),[28],-0.261
same,glycan array binding signal (z-score),[29],-0.272
same,glycan array binding signal (z-score),Neu5Ac(a2-8)Neu5Ac,-0.238
same,glycan array binding signal (z-score),[30],-0.017
same,glycan array binding signal (z-score),[31],-0.255
same,glycan array binding signal (z-score),[32],-0.279
same,glycan array binding signal (z-score),[33],-0.223
same,glycan array binding signal (z-score),[34],-0.257
same,glycan array binding signal (z-score),[35],-0.222
same,glycan array binding signal (z-score),[36],-0.274
same,glycan array binding signal (z-score),[37],-0.171
same,glycan array binding signal (z-score),[38],0.318
same,glycan array binding signal (z-score),Neu5Ac(b2-6)GalNAc,-0.261
same,glycan array binding signal (z-score),[39],-0.267
